Measured values as given in a compilation of properties of binary mixtures (doi:10.1021/je300384g).
Some of these densities may be calculated back from excess volumes.

Experiment: xn = mol fraction of the nth substance listed
Conditions: 101 kPa

CCCC[N+]1(C)CCCC1.N#C[N-]C#N + CC(C)O
mass density [kg/m3]
Conditions	298.15 K	313.15 K	328.15 K
x2 = 0	1013.4	1005.1	996.8
x2 = 0.0466	–	1001.4	993.1
x2 = 0.0896	1006.5	–	989.7
x2 = 0.1849	998.1	989.5	981.1
x2 = 0.2967	986.6	977.9	969.3
x2 = 0.4039	973	964.1	955.4
x2 = 0.5056	957.3	–	939.2
x2 = 0.6018	938.7	929.3	919.9
x2 = 0.6997	914.9	905.1	895.2
x2 = 0.8066	880.8	–	859.7
x2 = 0.892	–	834	–
x2 = 0.9461	–	805	792.6

CCCC[N+]1(C)CCCC1.N#C[N-]C#N + CCCCO
mass density [kg/m3]
Conditions	298.15 K	313.15 K	328.15 K
x2 = 0	–	–	996.8
x2 = 0.0464	1009.7	1001.3	993
x2 = 0.0945	1005.8	997.3	989
x2 = 0.1898	997	988.4	–
x2 = 0.299	985	976.3	967.7
x2 = 0.4012	971.7	962.8	954
x2 = 0.4989	956.5	947.4	938.4
x2 = 0.5996	937.7	928.5	–
x2 = 0.6947	916.4	906.8	–
x2 = 0.7995	887	–	866.7
x2 = 0.8965	853.1	842.4	831.6
x2 = 0.9464	832.3	821.2	809.9

CC(C)O + CCCC[N+]1(C)CCCC1.N#C[N-]C#N
x1 = 1
Conditions	mass density [kg/m3]
313.15 K	768.5
328.15 K	754.6

CCCCO + CCCC[N+]1(C)CCCC1.N#C[N-]C#N
x1 = 1
Conditions	mass density [kg/m3]
298.15 K	805.7
313.15 K	794.1
328.15 K	782.1

CCCO + CCCC[N+]1(C)CCCC1.N#C[N-]C#N
x1 = 1
Conditions	mass density [kg/m3]
298.15 K	799.7
313.15 K	787.4
328.15 K	774.8

CCCC[N+]1(C)CCCC1.N#C[N-]C#N + CCCO
mass density [kg/m3]
Conditions	298.15 K	313.15 K	328.15 K
x2 = 0	1013.4	1005.1	–
x2 = 0.0669	1008.9	1000.5	992.2
x2 = 0.1894	999.5	990.9	982.5
x2 = 0.2912	–	981.2	972.6
x2 = 0.3998	977.5	–	959.9
x2 = 0.514	–	952.2	–
x2 = 0.597	946.6	937.3	927.9
x2 = 0.6944	925.3	915.5	–
x2 = 0.8002	895	–	874.4
x2 = 0.894	858.7	847.7	836.6
x2 = 0.9437	834.3	822.9	811.2
